Assay results: the RNAGym collection of RNA variant scans (doi:10.1093/nar/gkz1192)
The source gives no read counts; variants with many changes may rest on few reads.

B1: CPEB3 Ribozyme (parent)
chain: UAACAGGGGGCCACAGCAGAAGCGUUCACGUCGCAGCCCCUGUCAGAUUCUGGUGAAUCUGCGAAUUCUGCUGUAUAUCUC

Variants of: B1
Assay: self-cleavage, relative activity (ratio to wild type); higher = more cleavage; in vitro, sequencing
Outline: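 For each CPEB3 ribozyme variant, relative activity is its cleaved/total read fraction divided by the unmutated ribozyme's. Barcoded error-prone PCR libraries were transcribed by T7 RNA polymerase (5 hours, 37°C) and held in DNase I for 15 min before an EDTA stop, with cleavage occurring throughout. Template-switching reverse transcription and Illumina sequencing were used to read the RNAs. A 5-read minimum applied, and results are the mean of three batches.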

Variant	self-cleavage
UGACAGGGGGCCACAGCAGAAGCGUUCACGUCGCAGCCCCUGUCAGAUUCUGGUGAAUCUGCGAGUUCUGCCGUAUAUCUC [A2G A65G U72C]	0.12
UGAGAGGGGGCCACAGCAGAAGCGUUCGCGUCGCAGCCCCUGUCAGAUUCUGGUGAAUCUGCGAAUUCUGCUGUAUAUCCC [A2G C4G A28G U80C]	0.88
UGAUAGGGGGCCGCAGCAGUAGCGUUCACGUCGCAGCCCCUGUCAGAUUCUGGCGAAUCUGCGAAUUCUGCUGUAUACCCC [A2G C4U A13G A20U U54C U78C U80C]	0.42
UGAUAGGGGGCCUCAGCAGAAGCGUUCGCGUCGCAGCCCCUGUCAGAUUCUGGUGAAUCUGCGAAUUCUGCAGUAUAUCUC [A2G C4U A13U A28G U72A]	0.84
UGAUAGGGGGCCACGGCAGGAGCGUCCGCGUCGCAGCCCCUGUCAGAUUCUGGUGAAUCUGCGAAUUCUGCUGUAUAUCUC [A2G C4U A15G A20G U26C A28G]	0.65
UGAUAGGGGGCCACAGCAGGAGCGUUCACGUCGCAGCCCCUGUCAGAUUCUGGUGAAUCUGCGAAUUCUGCCGUAUAUCUC [A2G C4U A20G U72C]	1.13
UGAUAGGGGGCCACAGCAGAAGCGUUCACGUCGCUGCCCCUAUCAGAUUCUGGUGAAUCUGCGAAAUCUGCCGUAUAUCUC [A2G C4U A35U G42A U66A U72C]	0.08
UGAUACGGGGCCACAGCAGAAGCGUUCACGUCGCAGCCCCCGUCAGGUUCUGGGGAAUCUGCGAAUUCUGCUGUAUAUCAC [A2G C4U G6C U41C A47G U54G U80A]	0.37
UGAUAGGGGGCCACAGCAGAAGCGUACACGUCGCAGCCCCUGUCAGAUUCUGGUGAAUCUGCGAACUCCGCUGUAUAUCUC [A2G C4U U26A U66C U69C]	0.5
UGACAGGGGGACUCAGCAGAAGCGUUCACGUCGCAGCCCCUGGCAGAUUCUGGUGAAUCUGCGAAUUCUGCAGUAUGUCUC [A2G C11A A13U U43G U72A A77G]	0.05
UGACAGGGGGACACAGCAGAAGCGUUCACGUCGCAGCCCCUGUCAGAUUCUGGUGAAUCUGCGAAUACUGCUGUAUAUCUC [A2G C11A U67A]	0.3
UGACAGGGGGGCUCAGCAGGAGCGUUCACGUCGUAGCCCCCGUCAGAUUCUGGUGAAUCUGCGAAUUCUGCUGUAUAUCUC [A2G C11G A13U A20G C34U U41C]	0.08
UGACAGGGGGGCACAGCUGAAGCGUUCACGUCGCAGCCCCUGUCAGAUUCUGGUGAAUCCGCGAAUUCUGCUGUAUAUCUC [A2G C11G A18U U60C]	0.21
UGACAGGGGGGCACAGCAGAAGCGUUCACGUCGCAGCCCCUGUCUGAUUCUGGUGAAUCUGCGAAUUCUGCUGUACAUCUC [A2G C11G A45U U76C]	0.35
UGACAGGGGGGCACAGCAGAAGCGUUCACGUCGCAGCCCCUGUAAGAUUCUGGUGAAUAUGCGAAUUCUGCCGUAUAUCUC [A2G C11G C44A C59A U72C]	0.06
UGACAGGGGGGCACAGCAGAAGCGUUCACGUCGCAGCCCCUGUCAGAUUCUGGCGAAUCUGCGUAUUCUGCUGCACAUCUC [A2G C11G U54C A64U U74C U76C]	0.1
UGACAGGGGGUCACAGCUGAAGCGUUCACGUCGCUGCCCCUGUCAGAUUCUGGGGAAUCUGCGAAUUCCGCUGUAUAUCUC [A2G C11U A18U A35U U54G U69C]	0.03

Variant	self-cleavage
UGACAGGGGGCAACAGCAGAAGCGCUCACGUCGCAGCCCCAGUCGGAUUCUGGUGAAUCUGCGAAUUCUGCUGCAUAUCCC [A2G C12A U25C U41A A45G U74C U80C]	0.04
UGACAGGGGGCGACAGCAGAAGCGUUAACGUCACAGCCCCUGUCAGAUUCUGGUGAAUCUGCGAAUUCUGCUGUAUAUCUC [A2G C12G C27A G33A]	0.07
UGACAGGGGGCGACAGCAGAAGCGUUCACGUCGCAGCCCCUAUAAGAUUCUGGUGAAUCAGCGAAUACUGCUGUAUAUCUC [A2G C12G G42A C44A U60A U67A]	0.13
UGACAGGGGGCUACAGCAGAGGCGUUCACGUCGCGUCCCCUGCCAGAUCCUGGUGAAUCUGCGAAUUCUGCUGUAUAUCUC [A2G C12U A21G A35G G36U U43C U49C]	0.04
UGACAGGGGGCUACAGCAGAAGCGUUCACGUCGCAGCCCCUGUCAGAUUCUGGUGAAUCUGCGGAUUCUGCUGUAUAUCUC [A2G C12U A64G]	0.85
UGACAGGGGGCUACAGCAGAAGCGUUCACGUCGCAGCCCCUGUCAGAUUCUGGUGAAUCUGCGGACUCUGCUGCAUAUCCC [A2G C12U A64G U66C U74C U80C]	0.21
UGACAGGGGGCUACAGCAGAAGCGUUCACGUCGCAGCCCCUGUCAGAUUCUGGUGAAUCUGCGAGCUCUGCUGUAUAUCUC [A2G C12U A65G U66C]	0.13
UGACAGGGGGCUACAGCAGAAGCGUUCACGUCGCACCCCCUGUCAGAUUCUGGUGAAUCUGCGAAUUCUGCUGUAUACCUC [A2G C12U G36C U78C]	0.06
UGACAGGGGGCUACAGCAGAAGCGUUCACGACGCAGCCCCAGUCAGAUUCUGGUGAAUCUGCGAAUUCUGCUGUAUAUCUC [A2G C12U U31A U41A]	0.25
UGACAGGGGGCUACAGCAGAAGCGUUCACGUCGCAGCCCCUGCCAGAUUCUGGUGAAUCUGCGAAUUCUUCUGUAUAUCUC [A2G C12U U43C G70U]	0.21
UGACAGGGGGCCAAGGCAGAAGCGUACACGUCGCAGCCCCUGUCAGAUUCUGGUGGAUCUGCGAAUUCUGCUGUAUAUCCC [A2G C14A A15G U26A A56G U80C]	0.6
UGACAGGGGGCCAGAGCAGAAGCGUUCACGUCGGAGCCCCUGUCGGACUCUGGUGAGUCUGCGAACUCUGCUGUAUAUCUC [A2G C14G C34G A45G U48C A57G U66C]	0.04
UGACAGGGGGCCAUAGCGGACGCGUUCACGUCGCAGCCCCCGUCGGAUUCUGGUGAAUCUGCGAAUUCUGCUGUAUAUCUC [A2G C14U A18G A21C U41C A45G]	0.43
UGACAGGGGGCCAUAGCAGAAGCGUUCCCGUCGCAGCCCCUGUCAGAUUCUGGUGAGCCUGCUAAUUCUGCUGUAUAUCUC [A2G C14U A28C A57G U58C G63U]	0.09
UGACAGGGGGCCAUAGCAGAAGCGUUCACGUCGCAGCCCCUGUCGGAUUCUGGUGAACCUGCGAAUUCUGCUGUAUAUCUC [A2G C14U A45G U58C]	0.34
UGACAGGGGGCCAUAGCAGAAGCGUCCACGUCGCAGCCCCUGUCAAAUUCUGGAGGAUCCGCGAAUUCUGCUGUAUAUCUC [A2G C14U U26C G46A U54A A56G U60C]	0.07
UGACAGGGGGCCACAGAAGAAGCGUUCACGUCGCAGCCCCUGUCAGAUUCAGGUGAAUCUGCGAAUUCUGCUGUAUAUCUC [A2G C17A U51A]	0.55
